From PubChem BioAssay AID1645882 (National Center for Advancing Translational Sciences (NCATS), 2021)
In all, about 16,000 compounds went through this assay and about 120 (0.75%) were called active. Not shown: some 4% with an inconclusive outcome. Calls follow the shape of the dose curve; as a rule, active = well fitted inhibition curve with a large enough effect; inconclusive = small, poorly fitted or top-dose-only effect; inactive = no such curve, though single readings can be large or run the other way. The list shows a part of the results.

These compounds were tested against Rap guanine nucleotide exchange factor 3 (Homo sapiens) (UniProt O95398) (assay: Validation qHTS for antagonist of cAMP-regulated guanine nucleotide exchange factor 3 (EPAC1)). Conditions: EPAC1 Rap1B-BODIPY-GDP exchange, fluorescence; series mostly up to 150 µM; activity change, negative = inhibition: at the top concentration.
Sequence of UniProt O95398 (O95398 whole entry, looked up): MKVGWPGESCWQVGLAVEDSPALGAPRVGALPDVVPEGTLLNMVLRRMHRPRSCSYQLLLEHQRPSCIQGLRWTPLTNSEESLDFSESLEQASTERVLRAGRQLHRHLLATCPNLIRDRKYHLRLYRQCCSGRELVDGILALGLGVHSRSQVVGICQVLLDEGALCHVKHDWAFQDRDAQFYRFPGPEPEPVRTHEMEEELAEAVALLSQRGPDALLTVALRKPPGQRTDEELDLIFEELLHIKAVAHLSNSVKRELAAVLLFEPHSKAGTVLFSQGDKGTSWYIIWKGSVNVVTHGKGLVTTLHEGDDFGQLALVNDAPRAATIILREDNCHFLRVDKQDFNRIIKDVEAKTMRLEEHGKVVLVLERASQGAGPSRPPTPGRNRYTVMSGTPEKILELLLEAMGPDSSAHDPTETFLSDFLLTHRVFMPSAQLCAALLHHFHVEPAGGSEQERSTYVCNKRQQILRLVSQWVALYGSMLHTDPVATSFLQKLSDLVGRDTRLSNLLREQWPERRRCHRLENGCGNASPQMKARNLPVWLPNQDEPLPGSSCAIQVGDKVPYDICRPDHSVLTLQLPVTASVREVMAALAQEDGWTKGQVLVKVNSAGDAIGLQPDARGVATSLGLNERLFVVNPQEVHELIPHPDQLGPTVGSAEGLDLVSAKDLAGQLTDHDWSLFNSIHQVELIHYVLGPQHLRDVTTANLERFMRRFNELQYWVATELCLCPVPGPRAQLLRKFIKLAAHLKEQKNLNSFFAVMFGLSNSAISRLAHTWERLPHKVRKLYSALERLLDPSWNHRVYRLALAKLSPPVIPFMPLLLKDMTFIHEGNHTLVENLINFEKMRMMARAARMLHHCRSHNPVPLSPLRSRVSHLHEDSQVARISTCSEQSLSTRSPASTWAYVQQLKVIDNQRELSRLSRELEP
How it was run: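 EPAC1 (100 nM) mixed with 250 nM RAP1B-BODIPY-GDP and 50 uM GDP; compounds in concentration series, 5 min at room temperature. Fluorescence (ex 480/em 540 nm) read every 5 min for 30 min; normalized to ATA control and DMSO.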
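Also: plate controls were DMSO for no effect and ATA control for full effect; nearly all actives have a fitted effect of over 75% in size.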

Activity change, negative = inhibition, inactive:
COC(=O)N1CCC[C@@]2(CCN(c3ccncc3)C2)C1 6.84%
CN(C)c1ncc2ncc(=O)n(Cc3ccc(F)cc3)c2n1 6.87%
Cc1ccc(C(=O)[C@@H]2[C@H]3C4COC(O4)C(=O)[C@@H]3[C@H]3C=Cc4ccccc4N32)cc1 (some centres undefined) 20.3%
NS(=O)(=O)C#Cc1ccccc1 16.1% [at 75.8 µM]
Cc1ccc(CNc2nc(C)c(-c3ccn(CCN4CCOCC4)n3)s2)o1 3.77%
CC(=O)C1=C(O)C=C2Oc3c(C(C)=O)c(O)c(C)c(O)c3C2(C)C1=O (centres undefined) 14.8%
Cc1ccc(C(=O)C(C)CN2CCCCC2)cc1 (centres undefined)
CNCC[C@@H](Oc1ccccc1C)c1ccccc1
c1ccc(CN2CCC3(CCCc4ccccc43)CC2)cc1 -1.83% [at 75.8 µM]
CN(C)c1ccc(N2[C@@H](CC(=O)O)c3cc(C(F)(F)F)ccc3S2(=O)=O)cc1 4.75%
O=S1(=O)CCO[C@H]2CCCC[C@@H]2N1Cc1ccccc1Br -3.34%
COc1cc(/C=C/C(=O)c2c(O)cc(C)oc2=O)ccc1O -3.2%
Cn1c(=O)c(-c2cc(F)cc(F)c2)nc2cnc(Nc3ccccc3)nc21 -4.87%
Cc1ccc2cc(CNC(C)c3cccc4ccccc34)c(N3CCC(O)CC3)nc2c1 (centres undefined) -1.69%
C/C=C/c1ccc(O)c(OC)c1 24.4%
COc1cc(C(C)=O)cc(OC)c1O 2.29%
COc1ncc2nc(-c3cc(F)cc(F)c3)c(=O)n(-c3ccccc3)c2n1 -1.11%
CCN(CC)CCCN(c1ccccc1)C1Cc2ccccc2C1
CCNC(=O)[C@@H]1CCCN1C(=O)[C@H](CCCN=C(N)N)NC(=O)[C@H](CC(C)C)NC(=O)[C@@H](CC(C)C)NC(=O)[C@H](Cc1ccc(O)cc1)NC(=O)[C@H](CO)NC(=O)[C@H](Cc1c[nH]c2ccccc12)NC(=O)[C@H](Cc1cnc[nH]1)NC(=O)[C@@H]1CCC(=O)N1 10.8%
CN(C)Cc1ccccc1-c1nc(N2CCOCC2)c2ccccc2n1 18.9%
Nc1cccc2[nH]cnc12 -20%
COC(=O)[C@@H]1CCCN1Cc1ccc2c(c1)CN(Cc1nccs1)CCO2 11.3%
O=C(Nc1cccc(F)c1)N1CC2(CCN(S(=O)(=O)c3ccccc3)CC2)C1 -1.63%
CCC1C(=O)NCCN1Cc1ccc2c(c1)CN(Cc1cc(OC)c3c(c1)OCO3)CCO2 (centres undefined) -4.23%
CCCCCCCCCCCCCCCC(=O)OCC(COC(=O)CCCCCCCCCCCCCCC)OC(=O)CCCCCCCCCCCCCCC 12.6%
C[C@@H](C(=O)O)c1ccc(-c2ccccc2)c(F)c1 8.51%
COC(=O)[C@@H]1[C@H]2SC(C)(C)[C@H](C(=O)OC)N2C(=O)N1Cc1cc2ccccc2n1S(=O)(=O)c1ccccc1 8.96%
Cc1ccc2nc(N3CCCCCC3)c(CN(CC3CCCO3)C(=O)c3cncs3)cc2c1 (centres undefined) -0.783%
COc1ccc(CNc2ccnc(-c3cccnc3)n2)c(OC)c1 -4.15%
CNC(=O)[C@H]1O[C@H](n2cnc3c(NCc4cccc(I)c4)ncnc32)[C@@H](O)[C@@H]1O -5.08%
CC(C)c1c(C(=O)N(C)Cc2cccc3ncccc23)cnn1-c1nccc(-c2ccccc2F)n1 -8.44%
CC1=CC(=O)c2ccccc2C1=O 14.2%
CC1(C)S[C@@H]2[C@H](NC(=O)COc3ccccc3)C(=O)N2C1C(=O)OCC1CCCCC1 (some centres undefined) -14.6%
COc1ccccc1CN1CC[C@@]2(CCCN(C(=O)c3cc(C(F)(F)F)cc(C(F)(F)F)c3)C2)C1 -6.19%
CN(C)c1ccc(-c2ccc3ncnc(N(C)Cc4ccco4)c3c2)cc1 -11.5%
CN(C)CCOc1ccccc1Cc1ccccc1 30.1%
O=C(c1ccncc1)N1CCC2(CCCN(c3cccc(-c4ccccc4)c3)C2)CC1 3.06%
COC(=O)N1CCC[C@@]2(CCN(C(=O)Nc3ccc(OC)cc3)C2)C1 22.9%
Cc1[nH]c2ccccc2c1/C=C/c1cnc2ccccc2n1 12%
N=C(N)N1CCc2ccccc2C1 15.9%
CCn1c(-c2ccccc2F)nc2cc(NC(C)=O)cc(C(=O)N3CCCC3c3nccs3)c21 (centres undefined) 14.6%
CC(NC(=O)c1cccnc1)c1nnc2n1CCN(Cc1ccc(F)cc1F)CC2 (centres undefined) 14.7%
O=C([C@@H]1CC=C[C@@H]2CCN(C3CCCCC3)C(=O)[C@@H]21)N1CCOCC1 -2.53%
COCCCOc1cc(C[C@@H](C[C@H](N)[C@@H](O)C[C@H](C(=O)NCC(C)(C)C(N)=O)C(C)C)C(C)C)ccc1OC 25.7%
CNCCCCOc1ccccc1Cc1ccccc1 2.14%
CN(CC(=O)N1CCOCC1)Cc1c(Cl)cccc1NC(=O)c1ccccc1 26%
C#C[C@]1(OC(C)=O)CC[C@H]2[C@@H]3CCC4=CC(=O)CC[C@@H]4[C@H]3CC[C@@]21C -7.55%
CCCCOC(=O)c1ccc(O)cc1 4.11%
COc1ccccc1CNc1cc(-c2cccc(NS(C)(=O)=O)c2)ncn1 0.819%
CCCc1nc2c(C)cc(-c3nc4ccccc4n3C)cc2n1Cc1ccc(-c2ccccc2C(=O)O)cc1 18.6%
CCC(O)c1ccccc1 (centres undefined) 16%
O=C(O)Cc1ccc(O)c(O)c1
COCC(=O)Nc1cc(C(=O)N2CCc3c(Cl)cccc3C2)c2c(c1)nc(-c1ccncc1)n2C 3.39%
C[C@@H]1[C@H](O)[C@@H](C)/C=C/C=C\C=C\C=C\C=C\C=C\C=C\[C@H](O[C@@H]2O[C@H](C)[C@@H](O)[C@H](N)[C@@H]2O)C[C@@H]2O[C@](O)(C[C@@H](O)C[C@@H](O)[C@H](O)CC[C@@H](O)C[C@@H](O)CC(=O)O[C@H]1C)C[C@H](O)[C@H]2C(=O)O (stereo in doubt) 40.2%
Cc1ncnc2nc[nH]c12 14.6%
Nc1ccccc1N 47% [at 320 µM]
COc1ccccc1-c1cc(=O)c2cccc(OC)c2o1 21%
COCC1CCCN(Cc2ccc3c(c2)CN(C(=O)c2sc(C)nc2C)CCO3)C1 (centres undefined) 5.65%
COc1ccc(CCN(C)C(=O)c2cnn(-c3nccc(-c4ccc(C)o4)n3)c2C)cc1OC -0.877%
COC(=O)CC1C(=O)NCCN1C(=O)CN1Cc2ccccc2OC(c2ccccc2)C1 (centres undefined) 4.19%
N[C@](CC1c2ccccc2Oc2ccccc21)(C(=O)O)[C@@H]1C[C@@H]1C(=O)O 0.27%
CCCCC1C(=O)N(c2ccccc2)N(c2ccccc2)C1=O
O=c1c(-c2cccs2)nc2cnc(N3CCOCC3)nc2n1CCc1ccccc1 8.83%
Nc1ncnc2c1c(I)cn2C1OC(CO)C(O)C1O (centres undefined)
Cc1cc(-c2cc(F)cc3c2OC(CNC(=O)[C@@H]2CCC(=O)N2)C3)ccc1F (some centres undefined) 8.96%
O=C(c1ccc(N2CCC(NCCCn3ncc4ccccc43)CC2)cc1)N1CCOCC1 11.5%
O=C(O)/C=C/C=C/c1ccccc1 12.6%
NC(C(=O)NC1C(=O)N2C(C(=O)O)=C(Cl)CSC12)c1ccccc1 (centres undefined) 6.94%
O=C(CO)[C@@H](O)[C@H](O)[C@@H](O)CO 10.1%
CC(=O)Oc1cc(C)c(OC(C)=O)c2ccccc12 7.02%
O=C(OCc1ccccc1)c1cccnc1 -20.5%
COc1ccc(-c2nc3cnc(N4CCN(C)CC4)nc3n(CCc3ccccc3)c2=O)cc1 18.8%
Cc1nc2cnc(Oc3ccccc3)nc2n(C)c1=O -0.535%
N=C(N)SCCN
CN(C)c1ccc2ccc3cccc4ccc1c2c34 -2.92%
CC(=O)N[C@H]1[C@H]([C@H](O)[C@H](O)CO)OC(C(=O)O)=C[C@@H]1N=C(N)N 19.3%
CCOc1ccc(N=Nc2ccc(N)cc2N)cc1 -11.5%
O=C1CC[C@@]23/C=C/C(=O)NCCCCNCCCNC(=O)/C=C/c4ccc(c2c4)OC3C1 (some centres undefined) 16.8%
COc1ccccc1CCn1c(=O)c(-c2cccc(F)c2)nc2cncnc21 8.36%
CC[N+](CC)(CCNC(=O)C(=O)NCC[N+](CC)(CC)Cc1ccccc1Cl)Cc1ccccc1Cl
CN(C)c1ncc2nc(-c3cccs3)c(=O)n(C)c2n1 24.5%
N=c1ccn2c(n1)OC1C(O)C(CO)OC12 (centres undefined)
CCN1CCCC1CNC(=O)c1cnn(-c2nccc(-c3cc4ccccc4o3)n2)c1C (centres undefined) 4.99%
O=C(c1cc(C(F)(F)F)cc(C(F)(F)F)c1)N1CCC2(CC1)CN(Cc1ccccc1)C2 6.12%
OCC(S)CS (centres undefined) 8.06%
Cc1noc(C)c1-c1cc(NCc2cccs2)ncn1 5.91%
[Li+] -4.57% [at 75.8 µM]
CC(C)=CC1C(C(=O)O)C1(C)C (centres undefined) 6.88%
O=c1c(CCc2ccccc2)nc2cncnc2n1Cc1ccc(F)cc1 -7.25%
CC(C)(C)C(=O)OCOC(=O)[C@@H]1N2C(=O)[C@@H](N=CN3CCCCCC3)[C@H]2SC1(C)C 9.61% [at 75.8 µM]
COc1ccc(CN2CCC(=O)N([C@H](CO)CC(C)C)CC2)cc1OC 11.6%
CCOC(=O)C[C@H]1c2ccccc2S(=O)(=O)N1c1cccc(OC)c1 0.554%
CC(CCC(=O)O)C1CCC2C3C(=O)CC4CC(=O)CC[C@@]4(C)C3CC(=O)[C@]12C (some centres undefined) -11.2%
CN(Cc1ccco1)c1cc(-c2ccoc2)ncn1 19.7%
Cc1noc(C)c1-c1nc(N2CCNCC2)c2ccccc2n1 5.34%
Cn1cccc1C(=O)N1CCC2(CCCN(Cc3nccs3)C2)CC1 8.65%
COCC(=O)Nc1cc(C(=O)N2CCOc3ccccc3C2)cc2nc(-c3cccnc3)n(C)c12 14.3%
Cc1cnc(CNc2cc(-c3ccccc3CN(C)C)ncn2)cn1 1.99%
CCCCCCCCCCOCC(O)CN (centres undefined) 26.6%
Cc1cc(=O)c(C(=O)NCCc2ccccn2)c2n1-c1ccccc1SC(c1cccs1)C2 (centres undefined) 14.7%
C=CC[C@H](c1ccc(F)cc1)N(CC(C)C)S(=O)(=O)C=C -27.3%
COc1ccc2cc3[n+](cc2c1OC)CCc1cc2c(cc1-3)OCO2
COCc1ccc(CN2CCOc3ccc(C4=Cc5ccccc5C4)cc3C2)o1 -6.8%
COCCn1c(=O)c(-c2cccc(C#N)c2)nc2cnc(Oc3ccc(OC)cc3)nc21 -10.4%
